Molecules are shown by their SMILES. In all, about 110,000 compounds were measured (“z-score”: median about -0.1, highest 2% from about 2 on). The list shows a part of the results. The source made the active and inactive calls.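 Rule for the calls: active = z-score in the third read window above 3 or below -3; inactive = the rest.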

This test addresses Metabotropic glutamate receptor 8 (Rattus norvegicus) (UniProt P70579). Kind of test: mGluR8 Gi/Go-coupled signaling modulation – cell-based, rat, thallium flux, HTS, primary screen (AID 488969). As to conditions: HEK293 rat mGluR8, GIRK (G protein-gated inwardly rectifying potassium channel) thallium flux, FluoZin2; at 10 µM; stronger effect = higher value; submaximal glutamate (EC20) added with thallium.
Sequence of UniProt P70579 (P70579 whole entry, looked up): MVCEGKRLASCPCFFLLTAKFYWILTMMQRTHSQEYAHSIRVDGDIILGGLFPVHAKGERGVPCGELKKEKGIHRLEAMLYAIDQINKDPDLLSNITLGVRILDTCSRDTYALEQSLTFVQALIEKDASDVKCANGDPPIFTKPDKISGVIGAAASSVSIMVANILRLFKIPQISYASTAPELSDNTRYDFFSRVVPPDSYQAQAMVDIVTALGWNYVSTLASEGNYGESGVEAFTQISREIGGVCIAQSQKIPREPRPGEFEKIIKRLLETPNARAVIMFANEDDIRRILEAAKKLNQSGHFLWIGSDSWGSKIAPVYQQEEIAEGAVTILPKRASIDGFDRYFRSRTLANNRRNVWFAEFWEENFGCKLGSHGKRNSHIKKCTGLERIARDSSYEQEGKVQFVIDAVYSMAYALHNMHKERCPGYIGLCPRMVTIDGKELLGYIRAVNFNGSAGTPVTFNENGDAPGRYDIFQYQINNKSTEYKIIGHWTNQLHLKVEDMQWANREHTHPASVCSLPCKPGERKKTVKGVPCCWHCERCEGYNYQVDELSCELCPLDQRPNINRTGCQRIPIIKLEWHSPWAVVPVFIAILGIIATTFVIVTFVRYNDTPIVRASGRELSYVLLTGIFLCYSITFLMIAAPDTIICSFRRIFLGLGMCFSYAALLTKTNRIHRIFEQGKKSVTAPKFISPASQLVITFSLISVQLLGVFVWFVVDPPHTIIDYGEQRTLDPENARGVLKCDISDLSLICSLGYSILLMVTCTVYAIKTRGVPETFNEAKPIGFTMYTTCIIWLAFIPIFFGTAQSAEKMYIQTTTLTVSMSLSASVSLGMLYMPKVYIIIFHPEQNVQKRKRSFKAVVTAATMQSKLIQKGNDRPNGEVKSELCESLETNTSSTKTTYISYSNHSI
`Cn1c(N)c(C(=O)COC(=O)C2CCC(C(C)(C)C)CC2)c(=O)n(C)c1=O` (centres undefined) showed a z-score of 0.181.

For the molecule `COc1ccc(C(=O)NNC2CC(=O)N(Cc3ccc(Cl)cc3)C2=O)cc1OC` (centres undefined), the z-score is -0.305.

The molecule `Cc1cc(-c2n[nH]c(=S)n2/N=C/C=C/c2ccccc2)n[nH]1` came in with a z-score of -0.122.

Take `Cc1ccc(S(=O)(=O)N(Cc2ccccc2)c2ccccc2C(=O)NCc2ccco2)cc1`: the z-score was -0.308.

On to `CCCCCCCC(=O)NN=C1CCN(Cc2ccccc2)CC1`, for which the z-score was -0.377.

Take `CCOc1ccc(C(Nc2ccc(C)cc2)P2(=O)OCCC(C)O2)cc1` (centres undefined): the z-score is -0.269.

As to `Cn1c(=O)c2c(nc(N3CCOCC3)n2C)n(C)c1=O`, the z-score was -0.101.

As for `Cc1c(Cl)cnc(NC(=O)COC(=O)c2ccc(S(=O)(=O)NCc3ccco3)cc2)c1Cl`, the z-score was -0.169.

Consider `COC(=O)c1cnc2c(c1C(=O)OC)c(=O)n(C)c(=O)n2C`, for which the z-score was 0.485.

`CC(C)(C)C(=O)CSc1nccc(=O)[nH]1`: the z-score came to 0.0433.

`COc1ccc(OCC(=O)c2c(O)c3ccccc3oc2=O)cc1` showed a z-score of 0.247.

As to `CNc1nc(SC)nc(N(C#N)CC(=O)OC)n1`, the z-score was -0.301.

Take `COCC(=O)Nc1ccccc1C#N`: the z-score was -0.0192.

`COc1cc(NC(C)C(=O)N2CC(C)OC(C)C2)cc(OC)c1` (centres undefined) gave a z-score of 0.154.

As to `CC(C)C1C(C#N)=C(N)SC(N)=C1C#N`, the z-score worked out at 0.282.

Turning to `Cc1ccc2nc(SCC(=O)NCC3CCCO3)c(C#N)cc2c1` (centres undefined), the z-score was -0.315.

The molecule `O=C(NCCCN1CCOCC1)c1cc2ccccc2oc1=O` showed a z-score of -0.716.

For `c1ccc2sc(Sc3ncnc4sccc34)nc2c1`, the z-score is -0.464.

As for `COc1ccccc1N1CCN(C(=O)Cn2c(=O)[nH]c3ccsc3c2=O)CC1`, the z-score is -0.563.

On to `Cc1ccc(NC(=O)Cc2ncc(C(F)(F)F)cc2Cl)cc1Cl`, for which the z-score amounted to 0.904.

Molecule `Cc1c(NC(=O)c2cnn3c(C(F)(F)F)cc(-c4ccco4)nc23)c(=O)n(-c2ccccc2)n1C` displayed a z-score of 0.95.

Molecule `Cc1cccc(OCC2=N/C(=C\N(C)C)C(=O)O2)c1` returned a z-score of -0.718.

Regarding `CCN1CC(C)C(O)(c2ccccc2)CC1C` (centres undefined), the z-score is 0.0176.

Molecule `CCOC(=O)c1nnc(-c2ccc(C)cc2)nc1Sc1ccc(Cl)cc1` yielded a z-score of -0.269.

The molecule `Cc1cc2ccc(C)c(C)c2nc1SCC#N` came in with a z-score of 0.515.

Molecule `CCN1C(=O)N(C)C(N(O)C(=O)NC)C1(C)C` (centres undefined) came in with a z-score of -0.0429.

Molecule `C=CC(=O)NC(C)(C)Cc1ccccc1` returned a z-score of 0.41.

Turning to `CCCc1cc2c(cc1NC(=O)c1ccccc1Cl)OCO2`, the z-score is -0.5.

`O=C(NC1CCCCC1)C(c1ccc(Cl)cc1)N(C(=O)c1cnccn1)c1ccc2c(c1)OCO2` (centres undefined) registered a z-score of -0.582.

In turn, `CCOC(=O)C1=C(C)N=C2SC(C)C(=O)N2C1c1ccc(OC(C)=O)c(OC)c1` (centres undefined) showed a z-score of 0.228.

In the case of `CS(=O)(=O)N1CCN(c2ccccc2NC(=O)c2ccco2)CC1`, the z-score was -0.175.

`Cc1c(C(=O)O)sc(=S)n1-c1ccc(Cl)cc1` had a z-score of -0.229.

In turn, `CCN1CCN(Cc2oc(CO)cc(=O)c2O)CC1` yielded a z-score of -0.236.

As to `O=C(Cn1cnc2c(nnn2Cc2ccc(F)cc2)c1=O)NCc1ccco1`, the z-score is -0.298.

Take `COc1ccc(OC)c(NC(=O)CSc2nc3ccccc3c3nc4ccccc4n23)c1`: the z-score is -0.122.

As for `CCOC(=O)C(C)Sc1nc(C2CC2)cc(C(F)(F)F)c1C#N` (centres undefined), the z-score was found to be 1.1.

In the case of `COC(=O)c1c(NC(=O)COC(=O)[C@@H](NS(=O)(=O)c2ccccc2)C(C)C)sc2c1CCC2`, the z-score came to 0.129.

For `Cc1nnc(NC(=O)CSc2nc3ccccc3o2)s1`, the z-score was 0.0274.

The molecule `COc1ccc2cc(CCNC(=O)C3CC3)c(=O)[nH]c2c1` showed a z-score of 0.115.

In turn, `CCCOC(=O)c1ccc(NC(=O)c2cc(Cl)ccc2OC)cc1` had a z-score of -0.0866.

The molecule `Nc1c(-c2ccccc2Cl)cnn1-c1cccc([N+](=O)[O-])c1` displayed a z-score of -0.243.

The molecule `CC(C)N1CC(O)=C(c2nc3ccccc3[nH]2)C1=N` yielded a z-score of 0.0228.

`Cc1nnc(SCC(=O)Nc2ccccc2N2CCOCC2)s1` showed a z-score of -0.0127.

Consider `C=C1CSc2nc3ccccc3c(=O)n21`, for which the z-score was 0.0912.

For the molecule `CCCCc1ccc(NC(=S)Nc2ccc(Cl)c(S(=O)(=O)N(C)C)c2)cc1`, the z-score is active: 5.93.

For `COc1cccc(-n2nc(-c3ccnn3-c3ccc(C)cc3)c(=O)n(C)c2=O)c1`, the z-score is -1.29.

`Cc1nnc(-n2cnc3ccccc32)c2ccccc12`: the z-score was -0.132.

With `Cc1cc(C(=O)CSc2nnnn2-c2ccc(Cl)cc2)c(C)n1CC1CCCO1` (centres undefined), the z-score was -1.51.

As to `CCNC(=O)/C(C#N)=C/c1c(N2CCOCC2)nc2ccccn2c1=O`, the z-score was -0.125.

In turn, `CCOC(=O)c1ccc(NC(=O)Nc2ccn(C)n2)cc1` gave a z-score of 0.403.

For the molecule `COc1cccc(Cn2nnc(C(=O)NCc3ccc(F)cc3)c2N)c1`, the z-score was -0.899.

Turning to `O=C(CN1CCN(CCOCCO)CC1)N1c2ccccc2Sc2ccc(Cl)cc21`, the z-score was -0.0439.

Take `Cn1cc(Cl)c(C(=O)NC2CCCC2)n1`: the z-score worked out at 0.534.

In the case of `OCCN=C(c1ccccc1)C12CN3CN(CN(C3)C1)C2`, the z-score is -0.677.

Molecule `CCOC(=O)c1[nH]c(C)c(C(=O)NCc2ccc(C)cc2)c1C` yielded a z-score of -0.482.

With `COCCN(C(=S)Nc1ccc(OC)cc1)C(C)c1cccs1` (centres undefined), the z-score is -0.321.

Regarding `Cc1ccc(-c2nnc(Nc3ccc(C(N)=O)cc3)c3ccccc23)cc1S(=O)(=O)NCC1CCCO1` (centres undefined), the z-score was -2.16.

Turning to `CC1CCc2nc(NC(=O)Nc3ccc4c(c3)OCO4)sc2C1` (centres undefined), the z-score was -0.337.

On to `Nc1nc(Cl)nc2ccc(Br)cc12`, for which the z-score was -0.0458.

On to `CCOC(=O)N1CCC(N(CCN(C)C)C(=S)Nc2cccc(Cl)c2C)CC1`, for which the z-score was determined as 0.0224.

As to `COc1cccc(CNc2cnc3ccccc3c2)c1O`, the z-score was -0.377.

`CN(C)S(=O)(=O)c1ccc(C(=O)Nc2nnc(SCc3cccc4ccccc34)s2)cc1` gave a z-score of -0.381.

In turn, `Cc1cccc(NC(=S)c2nc3ccccc3s2)c1` had a z-score of 0.84.

On to `O=C(Nc1ccc(Cl)c(Cl)c1)N(Cc1cccnc1)Cc1ccco1`, for which the z-score is -0.687.

Turning to `COC(=O)c1ccccc1NC(=O)C12CCC(C)(C(=O)O1)C2(C)C` (centres undefined), the z-score was -0.229.

As for `CC1Cc2ccccc2N1C(=S)NC(=O)c1ccc(Cl)cc1Cl` (centres undefined), the z-score is active: 13.5.

Molecule `O=C1CCC(=O)N1c1ccc(NCc2ccccc2Cl)c([N+](=O)[O-])c1` came in with a z-score of -0.118.

As for `CC(C)CNC(=S)NC1CCCC1`, the z-score was -0.161.

Consider `C=CCOc1ccc(CNC(C)(C)C)cc1OC`, for which the z-score is -0.186.

Take `O=C(Nc1cccnc1)Nc1ccc2c(c1)OCO2`: the z-score was -0.301.

As to `CN(c1ccccc1)S(=O)(=O)c1cccc(C(=O)Nc2ccc3c(c2)CCC3)c1`, the z-score was -0.298.

The molecule `O=S(=O)(c1ccc(Cl)cc1)N1CCCC1c1nc(-c2ccc(Cl)cc2)no1` (centres undefined) showed a z-score of -0.129.

Regarding `C=CCNC(=O)/C(C#N)=C/c1c(C)nn(-c2ccccc2)c1Cl`, the z-score is -0.527.

The molecule `COc1ccccc1OCC(=O)Nc1ccc(O)cc1C(=O)O` returned a z-score of 0.0858.

As for `COc1ccc(NC(=O)CN2C(=O)c3cccc4cccc2c34)c(OC)c1`, the z-score is -0.896.

Molecule `O=C1CC(c2nc3ccccc3[nH]2)CN1c1ccccc1F` (centres undefined) displayed a z-score of 0.118.

`CCN(CC)C(=O)C1CCCN(Cc2ccc3c(c2)OCO3)C1` (centres undefined): the z-score amounted to 0.126.

As for `c1ccc2[nH]c(SN3CCOCC3)nc2c1`, the z-score worked out at 0.258.

As for `Cc1ccc(C(=O)/C=C/c2ccc(F)cc2)o1`, the z-score is -0.0458.

Turning to `O=C(/C=C/c1ccc(Cl)cc1)N(c1ccccn1)C1CCCCC1`, the z-score stood at 0.501.

`COc1cc(OC)cc(C(=O)Nc2c(F)cccc2F)c1`: the z-score is 1.78.

`O=S(=O)(c1ccc2oc3ccccc3c2c1)N1CCCC1`: the z-score is -0.0188.

`Cc1ccc(Nc2nc(C(=O)NCCCN3CCOCC3)cs2)cc1` registered a z-score of -0.316.

As for `O=C(NC1CCCCC1)N1CCCC(c2nc(-c3cccs3)no2)C1` (centres undefined), the z-score is -0.174.

`c1ccc(Nc2nc(-c3ccncc3)nc3ccccc23)cc1` registered a z-score of -0.181.

With `COc1cccc(CNC(=O)C2CCN(S(=O)(=O)N3CC(C)CC(C)C3)CC2)c1` (centres undefined), the z-score amounted to 0.0737.

`Cc1ccccc1OCCCC(=O)Nc1nccs1` came in with a z-score of 2.49.

`C=CCSc1nc2ccccc2n1C(=O)/C=C/c1cc(OC)c(OC)c(OC)c1`: the z-score was -0.288.

The molecule `Cc1ccc(Cn2nnc3c(=O)n(Cc4cc(C)ccc4C)cnc32)cc1` showed a z-score of 0.531.

The molecule `Cn1cccc1C(=O)C(=O)Nc1cc(Cl)cc(Cl)c1` registered a z-score of -0.161.

`CCN(C(=O)COc1cc(=O)n(CC)c2ccccc12)c1cc(Cl)ccc1OC` displayed a z-score of -0.433.

`CCOC(=O)N1CCN(CC(O)COC2CC(C)CCC2C(C)C)CC1` (centres undefined) gave a z-score of 0.0251.

Regarding `CC1(C)OC(=O)N(c2ccccc2)C12C=Cc1c(ccc3ccccc13)O2` (centres undefined), the z-score is -0.377.

In turn, `Cc1cc(NS(=O)(=O)c2ccc(Cl)cc2)nn1CC(=O)NCc1ccco1` showed a z-score of -0.0635.

Molecule `CC(=O)c1cc(-c2ccccc2)n(CC(=O)Nc2cccc(C)c2C)c1C` displayed a z-score of 0.171.

Take `C=CCn1c(COc2ccccc2F)nnc1SCC(=O)N1CC(=O)Nc2ccccc21`: the z-score is -0.268.

Consider `Cc1ccc(OCC(=O)NC2=NCCS2)cc1`, for which the z-score was 0.87.

Turning to `O=C1CC(Nc2ccc(N3CCOCC3)cc2)C(=O)N1Cc1ccccc1` (centres undefined), the z-score was -0.0748.

In turn, `Cc1nnc(Sc2cc(C(=O)NCCCN(C)Cc3ccccc3)c3ccccc3n2)s1` yielded a z-score of -0.301.

With `COc1cccc(NC(=O)CCCOc2cc(=O)n(C)c3ccccc23)c1`, the z-score was -0.157.

Regarding `Cc1nnc(NC2(C(F)(F)F)C(=O)Nc3c2c(=O)n(C)c(=O)n3C)s1` (centres undefined), the z-score came to 0.75.

Turning to `c1ccc(-c2csc3ncnc(NCCCN4CCOCC4)c23)cc1`, the z-score came out at 1.39.

`NC(=O)c1ccc(-c2ncc(-c3ccccc3)o2)cc1`: the z-score is -0.252.

As to `CC(C)(C)OC(=O)NCCC(=O)Oc1ccc2ccc(=O)oc2c1`, the z-score is -0.0454.

As to `CN(CC(=O)N1CCN(c2cccc(Cl)c2)CC1)S(=O)(=O)c1cccs1`, the z-score is -0.142.

Regarding `Cc1ccc(CSc2nnc(-c3ccco3)n2N)cc1`, the z-score turned out to be 0.202.

With `O=C(N/C(=C\c1cn(-c2ccccc2)nc1-c1ccccc1)C(=O)N1CCOCC1)c1ccccc1`, the z-score was -0.225.

Take `O=C(c1ccc(Cl)cc1)[C@@H]1[C@@H]2C(=O)N(c3cccc4ccccc34)C(=O)[C@@H]2C2c3ccccc3C=NN21` (some centres undefined): the z-score was -0.0838.

In turn, `CCOC(=O)C1(P(=O)(c2ccccc2)c2ccccc2)CCC1` displayed a z-score of 0.0878.

With `O=C(c1cc2nc(C3CC3)cc(C(F)(F)F)n2n1)N1CCCC1`, the z-score is -0.161.

The molecule `FC(F)(F)c1cc(-c2ccco2)nc(N2CCOCC2)n1` registered a z-score of 0.00504.

As to `CC(C)(C)C(=O)Nc1ccc(C(=O)OC2CCCCC2)cc1`, the z-score amounted to 0.559.

Molecule `CS(=O)(=O)N1CCN(c2nc(-c3ccccc3)cs2)CC1` displayed a z-score of -0.122.

In turn, `N/C(Cc1cccs1)=N\OC(=O)COc1ccc(Br)cc1Cl` displayed a z-score of -0.42.

The values are drawn from PubChem BioAssay AID488969 (Vanderbilt High Throughput Screening Facility, 2010).
